Measurements reported in patent US11178870B2 (priority 2017, dated 2021).

Experiments:
[1] = test system: Colletotrichum orbiculare; details: 250 ppm spray, 2.5 ml/pot; investigated 6 to 10 days after inoculation
Magnaporthe grisea = assay type: in vivo; details: for Test A control value (blast on rice): class of control value, Table 7
Phytophthora infestans = assay type: in vivo; details: for Test F control value (late blight on tomato): class of control value, Table 7

SMILES	Test H control value (anthracnose on cucumber) [1]	Test A control value (blast on rice) (Magnaporthe grisea)	Test F control value (late blight on tomato) (Phytophthora infestans)	Test A control value (Magnaporthe grisea; Blast on rice)	Test F control value (Phytophthora infestans; Late blight on tomato)
Cc1cnn(-c2cc(Cl)c(=O)n(CC(F)F)c2-c2ccccc2Br)c1Cl [Compound 407]	H (H shows the control value more than 50%)	–	–	–	–
Cn1c(-c2c(F)cccc2F)c(-c2sc(Br)cc2Cl)cc(Br)c1=O [Compound 442]	L (L shows the control value of 50% or less)	H (H shows the control value more than 50%)	L (L shows the control value of 50% or less)	–	–
CCn1c(-c2ccc(F)cc2F)c(-n2cc(C)cn2)ccc1=O [compound 505, 6-(2,4-difluorophenyl)-1-ethyl-5-(4-methyl-1H-pyrazol-1-yl)pyridin-2(1H)-one]	L (L shows the control value of 50% or less)	H (H shows the control value more than 50%)	L (L shows the control value of 50% or less)	–	–
Cc1sccc1-c1cc(Br)c(=O)n(C)c1-c1c(F)cccc1F [Compound 492]	L (L shows the control value of 50% or less)	L (L shows the control value of 50% or less)	L (L shows the control value of 50% or less)	–	–
CN1C(=O)CCC(c2ccsc2)=C1c1c(F)cccc1F [Compound 3]	–	–	–	H (H shows the control value more than 50%)	L (L shows the control value of 50% or less)
O=c1c(Br)cc(-n2cc(F)cn2)c(-c2ccc(F)cc2Br)n1CC(F)F [Compound 449]	H (H shows the control value more than 50%)	H (H shows the control value more than 50%)	L (L shows the control value of 50% or less)	–	–
